# Measurements published in the supplement of paper PMC10037445.
# In all, about 2,900 compounds were measured (“NF-kB SEAP reporter activity, fold change vs agonist alone”: median about 0.99, highest 2% from about 2.6 on). Some of the results follow.
# What was measured:
# [1] = system: RAW-Dual; experiment: NF-kB SEAP reporter activity, fold change vs agonist alone; higher = enhanced NF-kB activity; conditions: library stock concentration (final ~1000-fold dilution): 10 mM
# Summary of the method: (§1)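 Reporter activity is given as fold change relative to agonist-alone wells. To measure it, 50 nL of library stock was pin-tooled onto RAW-Dual macrophages (50,000 cells/well, DMEM, 384-well plates), a PRR agonist followed 1 h later, and cells stayed at 37 °C, 5% CO2. Twenty hours on, supernatant was assayed for IRF (QuantiLuc luminescence) and NF-κB (QuantiBlue, 620 nm absorbance), and wells under 70% of agonist-control IncuCyte confluency in both mask sets were marked cytotoxic.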
# [2] = system: RAW-Dual; experiment: NF-kB SEAP reporter activity, fold change vs agonist alone; cytotoxicity flag (confluency mask): not cytotoxic; higher = enhanced NF-kB activity
# Summary of the method: as §1
# [3] = system: RAW-Dual; experiment: NF-kB SEAP reporter activity, fold change vs agonist alone; cytotoxicity flag (confluency mask): cytotoxic (confluency <70% of control); higher = enhanced NF-kB activity
# Summary of the method: as §1
# [4] = cytotoxicity flag (confluency mask): not cytotoxic, agonist: Imiquimod (TLR7) […]
# [5] = cytotoxicity flag (confluency mask): not cytotoxic, agonist: MPLA (TLR4) […]
# [6] = agonist: ODN 1826 (TLR9) 0.5 ug/mL
# [7] = agonist: Pam2CSK4 (TLR2/6) 0.1 ug/mL
# [8] = agonist: Pam3CSK4 (TLR2/1) 0.1 ug/mL
compound,measurement,setting,value
O=C(O)[C@H]1O[C@@H](Oc2cc3oc(-c4ccccc4)cc(=O)c3c(O)c2O)[C@H](O)[C@@H](O)[C@@H]1O,NF-kB SEAP reporter activity,[1]; [4],0.81
same,NF-kB SEAP reporter activity,[1]; [5],1.06
O=C(O)[C@H]1O[C@@H](Oc2cc3oc(-c4ccccc4)cc(=O)c3c(O)c2O)[C@H](O)[C@@H](O)[C@@H]1O (library stock concentration (final ~1000-fold dilution): 10 mM),NF-kB SEAP reporter activity,[2]; agonist: LPS (TLR4) 0.1 ug/mL,1.14
same,NF-kB SEAP reporter activity,[2]; [6],1.07
same,NF-kB SEAP reporter activity,[2]; [7],1.16
same,NF-kB SEAP reporter activity,[2]; [8],0.883
Cn1cc(-c2ccncc2)c(-c2ccc(OCc3ccc4ccccc4n3)cc2)n1,NF-kB SEAP reporter activity,[1]; [4],1.07
same,NF-kB SEAP reporter activity,[1]; [5],1.15
Cn1cc(-c2ccncc2)c(-c2ccc(OCc3ccc4ccccc4n3)cc2)n1 (library stock concentration (final ~1000-fold dilution): 10 mM),NF-kB SEAP reporter activity,[2]; agonist: LPS (TLR4) 0.1 ug/mL,1.25
same,NF-kB SEAP reporter activity,[2]; [6],0.979
same,NF-kB SEAP reporter activity,[2]; [7],0.704
same,NF-kB SEAP reporter activity,[2]; [8],0.926
CCOC(=O)C(CCc1ccccc1)NC(C)C(=O)N1CCCC1C(=O)O.O=C(O)/C=C\C(=O)O (stereo not drawn) (library stock concentration (final ~1000-fold dilution): 10 mM),NF-kB SEAP reporter activity,[2]; agonist: LPS (TLR4) 0.1 ug/mL,1.08
same,NF-kB SEAP reporter activity,[2]; [6],1.04
same,NF-kB SEAP reporter activity,[2]; [7],1.03
same,NF-kB SEAP reporter activity,[2]; [8],1.02
CCOC(=O)C(CCc1ccccc1)NC(C)C(=O)N1CCCC1C(=O)O.O=C(O)/C=C\C(=O)O (stereo not drawn),NF-kB SEAP reporter activity,[1]; [4],0.942
same,NF-kB SEAP reporter activity,[1]; [5],1.06
Br.Cc1ccc(-c2cn3c4c(sc3n2)CCCC4)cc1 (library stock concentration (final ~1000-fold dilution): 10 mM),NF-kB SEAP reporter activity,[2]; agonist: LPS (TLR4) 0.1 ug/mL,1.2
same,NF-kB SEAP reporter activity,[2]; [6],0.852
same,NF-kB SEAP reporter activity,[2]; [7],0.993
same,NF-kB SEAP reporter activity,[2]; [8],0.801
Br.Cc1ccc(-c2cn3c4c(sc3n2)CCCC4)cc1,NF-kB SEAP reporter activity,[1]; [4],0.894
same,NF-kB SEAP reporter activity,[1]; [5],1.11
Nc1ccc(C(=O)Nc2cccc(-c3nc(N4CCOCC4)c4oc5ncccc5c4n3)c2)cn1 (library stock concentration (final ~1000-fold dilution): 10 mM),NF-kB SEAP reporter activity,[2]; agonist: LPS (TLR4) 0.1 ug/mL,2.62
CN(C)CCCN1c2ccccc2Sc2ccc(Cl)cc21,NF-kB SEAP reporter activity,[1]; [4],2.1
same,NF-kB SEAP reporter activity,[1]; [5],1.75
CN(C)CCCN1c2ccccc2Sc2ccc(Cl)cc21 (library stock concentration (final ~1000-fold dilution): 10 mM),NF-kB SEAP reporter activity,[2]; agonist: LPS (TLR4) 0.1 ug/mL,1.12
same,NF-kB SEAP reporter activity,[2]; [6],0.55
same,NF-kB SEAP reporter activity,[2]; [7],0.813
same,NF-kB SEAP reporter activity,[2]; [8],0.58
C/C=C(/C)C(=O)OC1c2c(ccc3ccc(=O)oc23)OC(C)(C)C1OC(=O)/C(C)=C\C (stereo not drawn) (library stock concentration (final ~1000-fold dilution): 10 mM),NF-kB SEAP reporter activity,[2]; agonist: LPS (TLR4) 0.1 ug/mL,0.566
same,NF-kB SEAP reporter activity,[2]; [6],1.04
same,NF-kB SEAP reporter activity,[2]; [7],0.715
same,NF-kB SEAP reporter activity,[2]; [8],1.02
C/C=C(/C)C(=O)OC1c2c(ccc3ccc(=O)oc23)OC(C)(C)C1OC(=O)/C(C)=C\C (stereo not drawn),NF-kB SEAP reporter activity,[1]; [4],1.01
same,NF-kB SEAP reporter activity,[1]; [5],1.03
C[C@@H]1O[C@@H](O[C@H]2C(=O)c3c(O)cc(O)cc3O[C@@H]2c2ccc(O)cc2)[C@H](O)[C@H](O)[C@H]1O,NF-kB SEAP reporter activity,[1]; [4],0.949
same,NF-kB SEAP reporter activity,[1]; [5],0.95
C[C@@H]1O[C@@H](O[C@H]2C(=O)c3c(O)cc(O)cc3O[C@@H]2c2ccc(O)cc2)[C@H](O)[C@H](O)[C@H]1O (library stock concentration (final ~1000-fold dilution): 10 mM),NF-kB SEAP reporter activity,[2]; agonist: LPS (TLR4) 0.1 ug/mL,1.24
same,NF-kB SEAP reporter activity,[2]; [6],0.943
same,NF-kB SEAP reporter activity,[2]; [7],1.05
same,NF-kB SEAP reporter activity,[2]; [8],1.14
O=C1NC(=O)/C(=C/c2ccc3c(c2)OC(F)(F)O3)S1 (library stock concentration (final ~1000-fold dilution): 10 mM),NF-kB SEAP reporter activity,[2]; agonist: LPS (TLR4) 0.1 ug/mL,0.268
same,NF-kB SEAP reporter activity,[2]; [6],0.361
same,NF-kB SEAP reporter activity,[2]; [7],0.13
same,NF-kB SEAP reporter activity,[2]; [8],0.313
O=C1NC(=O)/C(=C/c2ccc3c(c2)OC(F)(F)O3)S1,NF-kB SEAP reporter activity,[1]; [4],0.418
same,NF-kB SEAP reporter activity,[1]; [5],0.455
CNC1(C)C2CCC(C2)C1(C)C.Cl (stereo not drawn),NF-kB SEAP reporter activity,[1]; [4],0.927
same,NF-kB SEAP reporter activity,[1]; [5],1.05
CNC1(C)C2CCC(C2)C1(C)C.Cl (stereo not drawn) (library stock concentration (final ~1000-fold dilution): 10 mM),NF-kB SEAP reporter activity,[2]; agonist: LPS (TLR4) 0.1 ug/mL,1.09
same,NF-kB SEAP reporter activity,[2]; [6],0.915
same,NF-kB SEAP reporter activity,[2]; [7],1.08
same,NF-kB SEAP reporter activity,[2]; [8],1.42
CC(C)c1ccc2c(c1)c(SC(C)(C)C)c(CC(C)(C)C(=O)O)n2Cc1ccc(Cl)cc1,NF-kB SEAP reporter activity,[1]; [4],0.498
same,NF-kB SEAP reporter activity,[1]; [5],0.793
CC(C)c1ccc2c(c1)c(SC(C)(C)C)c(CC(C)(C)C(=O)O)n2Cc1ccc(Cl)cc1 (library stock concentration (final ~1000-fold dilution): 10 mM),NF-kB SEAP reporter activity,[2]; agonist: LPS (TLR4) 0.1 ug/mL,1.2
same,NF-kB SEAP reporter activity,[2]; [6],0.371
same,NF-kB SEAP reporter activity,[2]; [7],0.135
same,NF-kB SEAP reporter activity,[2]; [8],0.269
Cn1cc(-c2cc(Oc3cc(F)c(NC(=O)C4(C(=O)Nc5ccccc5)CC4)cc3F)ccn2)cn1 (library stock concentration (final ~1000-fold dilution): 10 mM),NF-kB SEAP reporter activity,[2]; agonist: LPS (TLR4) 0.1 ug/mL,3.09
same,NF-kB SEAP reporter activity,[2]; [6],0.863
same,NF-kB SEAP reporter activity,[2]; [7],0.629
same,NF-kB SEAP reporter activity,[2]; [8],0.98
Cn1cc(-c2cc(Oc3cc(F)c(NC(=O)C4(C(=O)Nc5ccccc5)CC4)cc3F)ccn2)cn1,NF-kB SEAP reporter activity,[1]; [4],0.974
same,NF-kB SEAP reporter activity,[1]; [5],1.71
Cc1nc(Nc2ncc(C(=O)Nc3c(C)cccc3Cl)s2)cc(N2CCN(CCO)CC2)n1,NF-kB SEAP reporter activity,"[1]; cytotoxicity flag (confluency mask): cytotoxic (confluency <70% of control), agonist: Imiquimod (TLR7) […]",0.405
same,NF-kB SEAP reporter activity,"[1]; cytotoxicity flag (confluency mask): cytotoxic (confluency <70% of control), agonist: MPLA (TLR4) […]",0.8
Cc1nc(Nc2ncc(C(=O)Nc3c(C)cccc3Cl)s2)cc(N2CCN(CCO)CC2)n1 (library stock concentration (final ~1000-fold dilution): 10 mM),NF-kB SEAP reporter activity,[3]; agonist: LPS (TLR4) 0.1 ug/mL,0.704
same,NF-kB SEAP reporter activity,[3]; [6],0.653
same,NF-kB SEAP reporter activity,[3]; [7],0.256
same,NF-kB SEAP reporter activity,[3]; [8],0.319
